# Out of some 190,000 compounds screened, about 360 (0.19%) were called active. Inconclusive means that the source gave no clear call. Such entries were picked first, then a sample of the others.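 How the source made its calls: active means GTP binding activity at least 20 points away from 100%, either lowered or raised; inconclusive means signal likely due to the compound's own green fluorescence; inactive means the rest.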
# Target: Ras-related protein Rab-2A (Canis lupus familiaris) (UniProt P61105)
# Assay: Rab2 wt fluorescent GTP binding changes, either direction – biochemical, dog, bead-based flow cytometry, multiplex, primary screen (AID 760);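 further: 0% = beads with excess unlabeled GTP and 100% = no-compound control corrected for plate trend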
# Conditions: GST-Rab2 wt beads, Bodipy-GTP binding, at 10 µM
row,Compound,GTP binding activity
1,CCC(C)NC(=O)CSc1nc2n[nH]c(C)c2c(=N)n1-c1ccc(OC)cc1 (stereo not drawn),inconclusive: 72%
2,O=C(O)CCc1nnc(SCC(=O)Nc2ccc(Br)cc2)[nH]c1=O,inconclusive: 88%
3,O=C(Nc1cccc(S(=O)(=O)N2CCCC2)c1)c1ccc2ccccc2n1,inconclusive: 92%
4,COc1ccc(S(=O)(=O)NC(C(=O)NCCc2ccccn2)C(C)C)cc1 (stereo not drawn),inactive: 107%
5,CCCc1cc(C(N)=O)c(NC(=O)C2CCCO2)s1 (stereo not drawn),inconclusive: 101%
6,Cc1ccccc1Cn1c(CN2CCN(C(=O)c3ccco3)CC2)nc2c1c(=O)n(C)c(=O)n2C,inconclusive: 92%
7,O=C(N/N=C/c1c(O)n(-c2ccccc2Cl)c(=O)c2ccccc12)c1cccnc1,inactive: 93%
8,CC(=O)N1CCC(=O)Nc2ccc([N+](=O)[O-])cc21,inactive: 98%
9,Cc1c(CN2CCc3c([nH]c4ccccc34)C2C2CCCCC2)cnn1C (stereo not drawn),inactive: 95%
10,COc1cccc(C(=O)COC(=O)c2n[nH]c(=O)c3ccccc23)c1,inconclusive: 94%
11,CCOC(=O)c1sc(NC(=O)CSc2nc(O)c(Cc3ccccc3)c(=O)[nH]2)nc1C,inactive: 93%
12,CSc1ncccc1C(=O)NC1CCCCCC1,inactive: 99%
13,Cc1sc2ncnc(NC(C)C(=O)O)c2c1C (stereo not drawn),inconclusive: 94%
14,Cc1c(C(=O)Nc2cccc3cccnc23)oc2ccccc12,inconclusive: 94%
15,C=CCn1c(=O)c(C(=O)Nc2ccccc2S(N)(=O)=O)c(O)c2ccccc21,inconclusive: 92%
16,COc1ccc(C2Nc3ccccc3C(=O)N2c2ccc(C)cc2)cc1Cn1nnc2ccccc21 (stereo not drawn),inconclusive: 89%
17,O=C(Nc1ccc2c(c1)CCC2)c1cccc(S(=O)(=O)N2CCN(c3ccc(F)cc3)CC2)c1,inconclusive: 107%
18,O=C(NCC1CCCO1)C1CC(=O)N(C2CCCC2)C1 (stereo not drawn),inconclusive: 102%
19,COc1cc(C)ccc1OCCOc1c(Cl)cc(Cl)cc1Cl,inconclusive: 91%
20,CCCCNc1nc(=S)[nH]c2cc(OC)c(OC)cc12,inconclusive: 59%
21,Cc1cc(C(=O)N/N=C/c2ccc(O)c([N+](=O)[O-])c2)c(C)n1-c1ccc(F)cc1,inconclusive: 88%
22,COc1ccc(/C=C(\C#N)C(=O)OCC(=O)Nc2ccc(-c3nc4ccc(C)cc4s3)cc2)cc1,inconclusive: 93%
23,Nn1cnnc1SCC(=O)Nc1ccc2c(c1)OCO2,inconclusive: 94%
24,CC(Oc1ccccc1)C(=O)NC1=NCCS1 (stereo not drawn),inactive: 99%

row,Compound,GTP binding activity
1,O=C(O)c1ccccc1OCCOc1ccccc1,active: 130% [activator]
2,CC(C)C1NC(=S)N(Cc2ccccc2)C1=O (stereo not drawn),inactive: 98%
3,COc1ccc(C)cc1NC(=O)c1ccccc1NS(=O)(=O)c1cccc2cccnc12,inactive: 100%
4,O=C(CN1CCN(c2ccc(O)cc2)CC1)Nc1cc(S(=O)(=O)N2CCCCC2)ccc1Cl,inconclusive: 86%
5,COc1cccc(OC)c1-c1nn2c(-c3cc(-c4ccccc4)n[nH]3)nnc2s1,active: 167% [activator]
6,Brc1ccc(CSc2ncn[nH]2)cc1,inconclusive: 107%
7,CC(C)N(C(=O)COC(=O)c1cccc(C(=O)OCC(=O)N(C(C)C)C(C)C)n1)C(C)C,inactive: 97%
8,COc1cc(CO)cc(Br)c1OCC(=O)Nc1cccc2ccccc12,inactive: 101%
9,CCOc1ccc(/C=C/c2c([N+](=O)[O-])c(=O)n(C)c(=O)n2C)cc1,inconclusive: 89%
10,COc1ccc(-c2csc(NC(=O)c3ccc(OCC(=O)N4CCOCC4)c(OC)c3)n2)cc1OC,inactive: 98%
11,COc1cc(/C=N\NC(=O)c2sc(N)nc2C)cc(OC)c1OC,inconclusive: 73%
12,O=C(CSc1n[nH]c(-c2ccccc2)n1)Nc1ccc(Br)cn1,inactive: 99%
13,O=C(Nc1ccccc1)C1=C(c2ccccc2)S(=O)(=O)CCS1(=O)=O,inactive: 87%
14,CC(C)(C)OC(=O)N1CCC[C@H]1c1nnc(SCc2ccc(Cl)cc2Cl)o1,inconclusive: 89%
15,O=c1[nH]c2ccccc2n1CCC1CCCCC1,inactive: 102%
16,COCCNC(=O)Nc1ccc2nc(-c3ccco3)c(-c3ccco3)nc2c1,inconclusive: 85%
17,O=C(Cc1ccc(Cl)cc1)Nc1ccc2c(c1)C(=O)NC2=O,inactive: 92%
18,O=S(=O)(c1ccc(F)cc1)n1ccc2cccnc21,inconclusive: 106%
19,Cc1ccc2c(c1)N(CCC(=O)NC1CC1)C(=O)C(C)O2 (stereo not drawn),inconclusive: 101%
20,NC(=S)Nc1nccc(-c2cccs2)n1,inconclusive: 92%
21,CCOC(=O)c1c(N)sc(C(=O)Nc2ccccc2)c1C,inconclusive: 95%
22,CN(CC(=O)N1CCN(c2cccc(Cl)c2)CC1)S(=O)(=O)c1cccs1,inactive: 96%
23,c1ccc(-c2csc3ncnc(NCCCN4CCOCC4)c23)cc1,inactive: 97%
24,CC(=O)c1cc(-c2ccccc2)n(CC(=O)Nc2cccc(C)c2C)c1C,inconclusive: 102%

row,Compound,GTP binding activity
1,CC(/C(O)=C(\C#N)c1nc2ccccc2n1C)N1C(=O)c2ccccc2C1=O (stereo not drawn),inactive: 102%
2,Cc1ccc(CNC(=O)C2CCN(S(=O)(=O)N3CCCCC3)CC2)cc1,inconclusive: 97%
3,Cc1nc(Cl)c2c(n1)N(CC(N)=O)C(=O)CO2,inactive: 99%
4,O=C1CC(c2nc3ccccc3[nH]2)CN1c1ccccc1F (stereo not drawn),inconclusive: 102%
5,COc1ccccc1CNC(=O)CSc1ccc(-c2cccc([N+](=O)[O-])c2)nn1,inactive: 98%
6,C/C(=N\NC(=O)c1ccco1)c1ccc(NC(=O)c2ccccc2)cc1,inconclusive: 95%
7,Cc1cccc(N2C(=O)CC(N(O)c3ccccc3)C2=O)c1 (stereo not drawn),inconclusive: 104%
8,COc1ccc2cc(CCNC(=O)C3CC3)c(=O)[nH]c2c1,inconclusive: 95%
9,CN(NC(=O)CN1C(=O)c2ccccc2C1=O)C1=NS(=O)(=O)c2ccccc21,inactive: 96%
10,O=C(CNS(=O)(=O)c1cccs1)NCc1ccccc1,inactive: 97%
11,CS(=O)(=O)N1CCN(c2ccccc2NC(=O)c2ccco2)CC1,inconclusive: 92%
12,Cc1ccc2c(CSc3nncn3C)cc(=O)oc2c1C,inconclusive: 94%
13,O=C(Nc1cccc(-c2ccc3nncn3n2)c1)c1ccco1,inactive: 87%
14,Cn1c(NC(=S)Nc2ccccc2)nc2ccccc21,inconclusive: 127%
15,Cn1cccc1/C=C1\SC(=S)N(NC(=O)c2cccc(Cl)c2)C1=O,inconclusive: 94%
16,COc1ccc(NC(=O)CSc2ccc3nnc(-c4cccnc4)n3n2)c(OC)c1,inactive: 83%
17,CCCN(CCC)CCCNC(=S)Nc1ccc2nc(N3CCCC3)cc(C)c2c1,inconclusive: 96%
18,Cc1cccc(C)c1OCc1n[nH]c(=S)n1N,inconclusive: 94%
19,FC(F)(F)c1cccc(OCCN2CCN(Cc3ccccc3)CC2)c1,inactive: 97%
20,CC1=C(C#N)c2nc(N)c(C#N)c(C)c2/C1=C\c1ccc(-c2ccccc2C(=O)O)o1,active: 76%
21,COCc1cc(C)nc2sc(C(=O)Nc3nccs3)c(N)c12,inconclusive: 77%
22,CCOC(=O)C1C(=O)OC(C)(C)C1C(C)C(=O)c1ccc(C)cc1C (stereo not drawn),inconclusive: 95%
23,N#Cc1ccc(OCC(=O)NCCc2ccc(S(N)(=O)=O)cc2)cc1,inconclusive: 101%
24,Cc1ccc(S(=O)(=O)NCC(=O)OC(C)C(=O)Nc2ncc(Cl)cc2Cl)cc1 (stereo not drawn),inconclusive: 97%

row,Compound,GTP binding activity
1,N#Cc1c2ccc(O)cc2n2ccccc12,inactive: 89%
2,CC(C)NC(=O)CSc1nnc(-c2ccncc2)n1-c1ccccc1,inconclusive: 103%
3,CCn1c(=O)cc(OCC(=O)NCCCN2CCN(c3cccc(Cl)c3)CC2)c2ccccc21,inconclusive: 91%
4,CCCCCOc1ccc(NC(=O)C(=O)NCCC2=CCCCC2)cc1,inconclusive: 108%
5,O=S(=O)(NC1CCCC1)c1cccc(S(=O)(=O)N2CCC(n3nnc4ccccc43)CC2)c1,inconclusive: 102%
6,Cc1cc(Nc2ccc(F)cc2)n2nc(C)nc2n1,inconclusive: 101%
7,Cc1sc2ncnc(Sc3ccccc3C(=O)O)c2c1C,active: 134% [activator]
8,C=CCNC(=O)c1cc(Cl)ccc1Cl,inconclusive: 103%
9,Brc1ccc(Nc2nc3ccccc3n3nnnc23)cc1,inconclusive: 103%
10,CSCCC(NC(=O)c1ccccc1)C(=O)O (stereo not drawn),inconclusive: 92%
11,Cc1c(CN(C)C(=O)/C=C/c2ccc([N+](=O)[O-])cc2)cnn1C,inactive: 98%
12,COc1ccc2ccccc2c1CN1CCN(Cc2ccccc2)CC1,inconclusive: 101%
13,Cc1cc(C)n(CCNC(=O)CC2C(=O)NCCN2CC2CCCCC2)n1 (stereo not drawn),inactive: 98%
14,CC(=O)OCC#CCSc1nc2ccccc2n1C,inconclusive: 100%
15,CC(C)(O)C#Cc1ccc(C(=O)NCCc2ccc(S(N)(=O)=O)cc2)cc1,inconclusive: 91%
16,COc1ccc(C(=O)C2CCCN(S(=O)(=O)C(C)C)C2)c(C)c1 (stereo not drawn),inactive: 95%
17,Cc1cc(=O)nc2c3ccccc3n(C(C)C(=O)Nc3c(F)c(F)c(F)c(F)c3F)n12 (stereo not drawn),inconclusive: 92%
18,CCCCN(C(=O)CSc1cc(C)c2ccccc2n1)c1c(N)n(Cc2ccccc2)c(=O)[nH]c1=O,inconclusive: 100%
19,COc1ccc(-c2csc(C3=C(O)CN(C(C)C)C3=N)n2)cc1OC,active: 76%
20,COc1ccccc1NC(=O)c1ccc(-c2ccc(Br)cc2)o1,inconclusive: 86%
21,Cc1ccc2cc3c(NC(=O)C4CCCO4)nn(CC(C)C)c3nc2c1 (stereo not drawn),inconclusive: 104%

# From PubChem BioAssay AID760 (NMMLSC, 2007)
